Test results taken from the supplement of paper PMC10126150.
Sequences with one replicate were seen in a single cluster, so their values are uncertain.

Tested on: ATP
Assay: switch fluorescence ratio, 500 uM ATP over buffer (Cy3 cluster intensity, sum of 5 cycles each) (fold (ratio)); higher = stronger signal-on switching upon ATP binding; sequences stand for … in TCGTCGGCAGCGTCAGATGTGTATAAGAGACAGTTTTTTTTTTTTTTTTTTTTTTTTT…TC
Conditions: aptamer strand: ATP DNA aptamer (quencher-CACCTGGGGGAGTATTGCGGAGGAAGG + anchor), 100 nM annealed; ATP concentration: 500 uM; one replicate
In short: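 The fluorescence ratio divides summed target-cycle Cy3 intensity by summed buffer-cycle Cy3 intensity for each cluster and is averaged per switch-domain sequence. Cy3-labelled switching-strand clusters on a modified Illumina MiSeq flow-cell were annealed to 100 nM quencher-labelled ATP aptamer, then imaged in selection buffer and again after 15 min with 500 uM ATP at 22 °C. Five such cycles were run, with NaOH stripping and re-annealing between them, and clusters outside 100-1000 RFU were excluded.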
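Further: ATP exposure 15 min at 22 °C before imaging.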

Sequence	switch fluorescence ratio
TTTCTGGAGC	1.47
AATGTAAGGC	0.96
GATCACGGAA	1.08
TTATTATTCG	0.992
CTGAATGAAC	0.992
ACTCAAAATT	1.09
AGATGAGCGG	0.965
TAAAACAATG	1.01
GCGATGCTGA	1.07
CGTCATGGC	0.94
AGAATAAGGT	1.02
TTCAATGAAG	0.991
ATTCTAGGAA	1.06
GAACTTGAGG	0.995
TAATTTCAAA	0.975
GAGGAGGTCA	0.95
ATGTGGTCG	1.03
CTGCTAGAGA	0.978
TTTAGCGCCA	0.996
TCGAATCGCG	0.996
TTACGGGTTT	0.98
TAATTAAGTA	0.988
CGATAATACA	1.03

Sequence	switch fluorescence ratio
CACACGAGGG	1.06
TGTGATTAA	1.01
GTTCTTCGGT	0.982
AAGGGTGTAG	1.07
AATCACCACT	1.02
GATTCAGAAG	0.979
ATCATCAGGC	1
GCGGCGCGCT	0.989
CTGCCAATTT	2.49
GGTTGCACGT	1.04
TTAGATCATT	1
ATCTCGTGAG	1
GCATAGGACC	1.28
GATTTGGAAC	1.01
GATGTCATCC	0.946
GGTTAAATCA	0.971
TGGGTCTGCT	1.01
GTGAATGATA	0.976
GTTAGCTAAC	1.15
TCAATTGAAT	0.998
TAGGTCACTG	0.979
TCACACTGTA	1.2
TTTTCCAATC	1.96

Sequence	switch fluorescence ratio
AGATCAGGGG	1.02
TCGATGAGTT	0.941
ATGGTTTGA	0.94
GAGTTAGAGG	1.02
GTTTGTCAAG	0.998
AACAACGGAC	1.37
AATAGGGGAT	0.967
GCTATGTGAC	1.05
TTATCGTTCT	0.978
CTCACCGGGG	1.35
GCCTACAACG	0.984
GCCCACTTGG	1.03
AGGTCAGTGG	1.04
CAGTCGGCCC	0.959
AGTTATGCTC	1.09
AAATCTACAG	1.04
CGCTCGACTT	1.05
GTGGTGGAGA	1.01
CACTTTTACG	1.14
GGGATTCAAA	1.01
CCAGTCCATA	0.997
GATATATGTG	0.982
CTTGAATAAC	1.01

Sequence	switch fluorescence ratio
ACGAAGCCTG	1.1
TCGACGGGCT	1.11
TATGGGCGAA	0.971
CATACACCAT	1.1
TGTGTGCAAA	0.982
GGCTCAGCAT	1.59
GTGTCTTTTA	1.03
TAGATTACCG	0.994
TTTGCGACTT	1.04
AGGAATGTAC	1.11
AGAGTATAAT	1
AAGGTCACAT	1.03
AATCGGGGTG	1.01
CGGAAGGAGG	1.03
ACGGACAATA	1.48
GCTTTAGTGC	1
TGGATGTCGC	1.03
CGCAGGAATA	1.57
TATTGCAGGG	1
CCACATCGGG	0.978
GCATGGGATC	1.03
TGCCCTGTTT	0.934
AGAGGAGCCA	0.965

Sequence	switch fluorescence ratio
AATTAGTCTG	0.983
GTGGAGCGGA	0.972
TATAAACTTA	0.974
CCTCGTCGTT	1.09
TTGTTGGGTG	1.02
CAGCTTGTCT	1.09
ACTAATACCA	1.05
AGCGGCGTCA	1.04
TCCCGTGGCG	1.02
AAGGATGCTT	1.04
AGAGAATAGG	0.998
ATATTACTAT	1.02
GGAATAGCCT	1.05
CGAAGAGAGA	1.01
TTTGCAGGTG	3.36
ATCCTGGAAT	0.96
TTCATGAGCA	1.02
GGTAAGAGCG	1.02
CCCCGGGTAG	3.53
TACAGCAAAG	1.15
ATCGATATTA	0.974
CCGGTCATTT	1.03
ACGTTGGTC	1.07

Sequence	switch fluorescence ratio
GAAAGGAGGC	0.963
CAGTTACCGG	0.999
TCAAGGGCG	1.08
TGCGGAACGT	1.04
GTGTGGGGTC	1.05
GTCTGGGGAG	1
AGGAGATAGC	1.01
CGCGACATT	1
TTGCACCGAT	1.06
TACCATACCA	1.26
TTGACCAAGA	1.01
GTGCCTCAGG	1.16
CGGCTCAAGT	1.02
ACAAGCTATC	1.47
GAGTGTATTA	1.01
AAGCCTTTTC	1.06
CCATATTTGA	1.03
GGTACCCGGC	1.04
GTCAGATCGG	0.983
AATGTTGCAC	1.07
CCGTGTTAGA	1.04
GGTCTGTGCG	1
CATGATTTTG	0.996

Sequence	switch fluorescence ratio
AGGGTAAGTG	0.965
CATTCGCAGG	4.44
TGGGCGCCAC	1.02
CTCGTAGTGA	1.03
ATCTGGTGAC	1.01
CTTTGTGTCA	1.03
TCGTTCGCGA	2.57
CGAACTTTAA	1.01
CAAGAACGGA	1.01
TTGAGGCATA	1.3
CACCCTACGC	1.54
CGGCGCGGC	1.06
GGTGTCGGTT	0.994
CTGTGCCAGG	1.17
GAAACCATTC	1.36
AGGCTTGTCC	1.04
GACTGAGGAA	0.936
CTGGGGGCGT	1.02
TATGGCTTGT	0.984
